“Also recorded” adds a separate entry of the source. A number of entries come with more than one value. They are shown here; other results are not. No rule for the calls is given here. There may be further records. Values given together differ, and nothing given here explains why; some may be repeats, others may stem from another dose, organism or construct than stated. Records carry a tag for their origin. Letters count within one entry. Brackets with × say how often a value occurs here.
Test system: CCRIS mutagenicity, Ames/micronucleus/aberration tests
Assay: CCRIS mutagenicity studies
[1] = Test System: MOUSE LYMPHOMA, Strain/Indicator: L5178Y (TK+/TK-), Metabolic Activation: RAT, LIVER, S-9, AROCLOR 1254, Method: SUSPENSION/PLATE
[2] = Test System: AMES SALMONELLA TYPHIMURIUM, Strain/Indicator: TA98, Metabolic Activation: NONE, Method: PREINCUBATION
[3] = End Point: IN VITRO CHROMOSOMAL ABERRATIONS, Test System: CHL CELLS, Metabolic Activation: NONE

SMILES: C[Si](C)(C)N[Si](C)(C)C
- mutagenic call [1]: inactive; negative. reevaluation of results: inconclusive; also recorded: inactive; negative. reevaluation of results: negative

SMILES: C=C1[C@@H](O)[C@@H]2O[C@]3(CC[C@H](/C=C/[C@@H](C)[C@@H]4CC(C)=C[C@@]5(O[C@H](C[C@@](C)(O)C(=O)O)CCC5O)O4)O3)CC[C@H]2O[C@@H]1[C@@H](O)C[C@H](C)[C@H]1O[C@@]2(CCCCO2)CC[C@H]1C (some centres not stated)
- mutagenic call (End Point: In vivo micronucleus, Test System: Colon epithelial cells, Species: Mouse, Strain/Sex: Swiss/Female, Route: Oral): active; positive; also recorded: inactive; negative, doses >/= 435 ug/kg were lethal

SMILES: O=C1CCCCC1
- mutagenic call (End Point: In vitro micronucleus, Test System: Bovine peripheral lymphocytes, Metabolic Activation: None): inactive; negative; also recorded: inactive; negative; authors describe as weak activity based on 2 non-dose related positive

SMILES: C=CCOC(=O)c1ccccc1C(=O)OCC=C
- mutagenic call (End Point: IN VITRO CHROMOSOMAL ABERRATIONS, Test System: CHO CELLS, Metabolic Activation: NONE): inactive; negative; also recorded: inactive; negative; oily suspension at 500 ug/ml (2×)

SMILES: Nc1cc(Cl)ccc1O
- mutagenic call (End Point: In vitro chromosomal aberrations, Test System: Chinese hamster lung (CHL/IU) cells, Metabolic Activation: None): active; positive (structural changes and ploidy); also recorded: active; positive (structural changes) (2×)
- mutagenic call (Test System: AMES SALMONELLA TYPHIMURIUM, Strain/Indicator: TA100, Metabolic Activation: RAT, LIVER, S-9, PHENOBARBITAL AND BETA-NAPHTHOFLAVONE, Method: PREINCUBATION): inactive; negative and active; positive
- mutagenic call (Test System: AMES SALMONELLA TYPHIMURIUM, Strain/Indicator: TA1537, Metabolic Activation: RAT, LIVER, S-9, PHENOBARBITAL AND BETA-NAPHTHOFLAVONE, Method: PREINCUBATION): inactive; negative and active; positive

SMILES: COP(N)(=O)SC (configuration not stated)
- mutagenic call (End Point: In vivo chromosomal aberrations, Test System: Bone marrow cells, Species: Rat, Strain/Sex: Wistar, Route: Oral): active; positive and active; positive (structural changes)

SMILES: O=[Si]=O
- mutagenic call (Test System: RAT ALVEOLAR CELLS, IN VIVO, Strain/Indicator: F344, MALE/HPRT/6-THIOGUANINE, Metabolic Activation: NONE, Method: INHALATION): active; positive and inactive; negative

SMILES: O=C(O)c1cc(O)c2c(c1)[C@H]([C@H]1c3cc(C(=O)O)cc(O)c3C(=O)c3c(O[C@@H]4O[C@H](CO)[C@@H](O)[C@H](O)[C@H]4O)cccc31)c1cccc(O[C@@H]3O[C@H](CO)[C@@H](O)[C@H](O)[C@H]3O)c1C2=O
- mutagenic call (Test System: AMES SALMONELLA TYPHIMURIUM, Strain/Indicator: TA98, Metabolic Activation: NONE, Method: STANDARD PLATE): inactive; negative [sample A] and active; positive [sample B]
- mutagenic call (Test System: AMES SALMONELLA TYPHIMURIUM, Strain/Indicator: TA98, Metabolic Activation: RAT, LIVER, S-9, AROCLOR 1254, Method: STANDARD PLATE): inactive; negative [sample A] and active; positive [sample B]

SMILES: C1COCOC1
- mutagenic call (End Point: IN VITRO CHROMOSOMAL ABERRATIONS, Test System: CHINESE HAMSTER OVARY CELLS, Metabolic Activation: NONE): inactive; positive; authors report this result is invalid because a negative control had s; also recorded: inactive; negative

SMILES: O=NN1CCCC1
- mutagenic call (Test System: AMES SALMONELLA TYPHIMURIUM, Strain/Indicator: TA100, Metabolic Activation: MOUSE, LIVER, S-9, Method: PREINCUBATION): inactive; negative [study A] and active; positive [study B]
- mutagenic call (Test System: AMES SALMONELLA TYPHIMURIUM, Strain/Indicator: TA1535, Metabolic Activation: RAT, LIVER, S-9, PYRAZOLE): inactive; negative and active; positive
- mutagenic call (Test System: AMES SALMONELLA TYPHIMURIUM, Strain/Indicator: TA1535, Metabolic Activation: RAT, LIVER, S-9, Method: STANDARD PLATE): active; positive [study A] and inactive; negative [study B]

SMILES: CC1=CC(=O)CC(C)(C)C1
- mutagenic call (End Point: IN VITRO CHROMOSOMAL ABERRATIONS, Test System: CHINESE HAMSTER LUNG FIBROBLAST CELLS (CHL/IU), Metabolic Activation: NONE): inactive; negative (2×) and active; positive (structural changes)

SMILES: C=C(C)C(=O)OCC(CC)(COC(=O)C(=C)C)COC(=O)C(=C)C
- mutagenic call (Test System: MOUSE LYMPHOMA, Strain/Indicator: L5178Y (TK+/TK-), Metabolic Activation: NONE, Method: SUSPENSION/PLATE): inactive; negative [study A]; also recorded: active; positive [study B]; also recorded: inactive; negative. reevaluation of results: negative [study C]
- mutagenic call [1]: inactive; negative [study A]; also recorded: inactive; negative. reevaluation of results: negative [study B]

SMILES: O=C/C(Br)=C(/Br)C(=O)O
- mutagenic call (End Point: In vitro micronucleus, Test System: Human lymphoblastoid (TK6) cells, Metabolic Activation: None): active; positive (only at highest dose) and inactive; negative

SMILES: CCOC(=O)N(CCCC(=O)c1cccnc1)N=O
- mutagenic call [2]: active; positive and inactive; negative
- mutagenic call (Test System: AMES SALMONELLA TYPHIMURIUM, Strain/Indicator: TA1535, Metabolic Activation: NONE, Method: PREINCUBATION): active; positive and inactive; negative

SMILES: CN(C)c1ccc(C(=C2C=CC(=[N+](C)C)C=C2)c2ccc(N(C)C)cc2)cc1
- mutagenic call (Test System: AMES SALMONELLA TYPHIMURIUM, Strain/Indicator: TA97, Metabolic Activation: RAT, LIVER, S-9, AROCLOR 1254, Method: STANDARD PLATE): active; positive and inactive; negative
- mutagenic call (Test System: AMES SALMONELLA TYPHIMURIUM, Strain/Indicator: TA104, Metabolic Activation: RAT, LIVER, S-9, AROCLOR 1254, Method: STANDARD PLATE): inactive; negative and active; positive

SMILES: c1ccc2c3c(ccc2c1)-c1cccc2cccc-3c12
- mutagenic call (Test System: AMES SALMONELLA TYPHIMURIUM, Strain/Indicator: TA97A, Metabolic Activation: RAT, LIVER, S-9, AROCLOR 1254, Method: PREINCUBATION): active; positive [study A] and inactive; negative [study B]
- mutagenic call (Test System: AMES SALMONELLA TYPHIMURIUM, Strain/Indicator: TA98, Metabolic Activation: RAT, LIVER, S-9, AROCLOR 1254, Method: PREINCUBATION): active; positive [study A] and inactive; negative [study B]
- mutagenic call (Test System: AMES SALMONELLA TYPHIMURIUM, Strain/Indicator: TA100, Metabolic Activation: RAT, LIVER, S-9, AROCLOR 1254, Method: PREINCUBATION): active; positive [study A] and inactive; negative [study B]

SMILES: O=C(O)CBr
- mutagenic call [2]: inactive; negative [study A] and active; positive [study B]

SMILES: CC(=O)c1ccncc1
- mutagenic call (End Point: IN VITRO CHROMOSOMAL ABERRATIONS, Test System: CHO-LB CELLS, Metabolic Activation: NONE): active; positive and inactive; negative

SMILES: Cc1ccc(S(=O)(=O)NN)cc1
- mutagenic call [3]: inactive; negative; also recorded: inactive; negative; authors report equivocal results for structural changes at the highest

SMILES: COc1cc(-c2ccc(N)c(OC)c2)ccc1N
- mutagenic call [3]: active; positive (structural changes); also recorded: active; positive (structural changes); precipitation of test chemical observed above 0.6
- mutagenic call (Test System: AMES SALMONELLA TYPHIMURIUM, Strain/Indicator: TA1535, Metabolic Activation: HAMSTER, LIVER, S-9, AROCLOR 1254, Method: PREINCUBATION): inactive; negative (2×) and active; positive

SMILES: OB(O)O
- mutagenic call (Test System: AMES SALMONELLA TYPHIMURIUM, Strain/Indicator: TA100, Metabolic Activation: NONE, Method: STANDARD PLATE): active; positive and inactive; negative

SMILES: Oc1ccc2ccccc2c1N=Nc1ccc(N=Nc2ccccc2)cc1
- mutagenic call (Test System: AMES SALMONELLA TYPHIMURIUM, Strain/Indicator: TA98, Metabolic Activation: RAT, LIVER, S-9, PCB, Method: PREINCUBATION): inactive; negative (2×) and active; positive
- mutagenic call (Test System: AMES SALMONELLA TYPHIMURIUM, Strain/Indicator: TA100, Metabolic Activation: RAT, LIVER, S-9, PCB, Method: PREINCUBATION): inactive; negative (2×) and active; positive

SMILES: OO
- mutagenic call (Test System: AMES SALMONELLA TYPHIMURIUM, Strain/Indicator: TA97, Metabolic Activation: NONE, Method: PREINCUBATION): active; positive [study A] and inactive; negative [study B]
- mutagenic call (Test System: AMES SALMONELLA TYPHIMURIUM, Strain/Indicator: TA1537, Metabolic Activation: NONE, Method: PREINCUBATION): inactive; negative [study A] and active; positive [study B]

SMILES: Nc1cc(Cl)c(N)c(Cl)c1
- mutagenic call (End Point: IN VITRO CHROMOSOMAL ABERRATIONS, Test System: CHO CELLS, Metabolic Activation: RAT, LIVER, S-9, AROCLOR 1254): active; positive; weak response; also recorded: active; positive; precipitation occurred at 4000 ug/ml

SMILES: Cc1cc2nc3c(=O)[nH]c(=O)nc-3n(C)c2cc1C
- mutagenic call (Test System: AMES SALMONELLA TYPHIMURIUM, Strain/Indicator: TA102, Metabolic Activation: NONE, Method: PREINCUBATION): inactive; negative and active; positive

SMILES: O=C(O)c1ccc([N+](=O)[O-])cc1
- mutagenic call [2]: inactive; negative [study A] and active; positive [study B] and inactive; negative [study C]

SMILES: O=C=Nc1ccc(Cc2ccccc2N=C=O)cc1
- mutagenic call (Test System: AMES SALMONELLA TYPHIMURIUM, Strain/Indicator: TA98, Metabolic Activation: RAT, LIVER, S-9, AROCLOR 1254 (30%), Method: STANDARD PLATE): active; positive and inactive; negative
- mutagenic call (Test System: AMES SALMONELLA TYPHIMURIUM, Strain/Indicator: TA1538, Metabolic Activation: RAT, LIVER, S-9, AROCLOR 1254 (30%), Method: STANDARD PLATE): active; positive and inactive; negative

SMILES: O
- mutagenic call (Test System: AMES SALMONELLA TYPHIMURIUM, Strain/Indicator: TA102, Metabolic Activation: RAT, LIVER, S-9, SODIUM PHENOBARBITAL AND 5,6-BENZOFLAVONE, Method: PREINCUBATION): inactive; negative and active; positive

Reference: PubChem BioAssay AID1259407 (Chemical Carcinogenesis Research Information System (CCRIS), 2018)
